Source: PubChem BioAssay AID1476 (National Center for Advancing Translational Sciences (NCATS), 2009)
Screen size: about 200,000 compounds; about 4,500 (2.2%) were called active. Inconclusive means that the source gave no clear call. Such entries were picked first, then a sample of the others. Calls follow the shape of the dose curve; as a rule, active = well fitted inhibition curve with a large enough effect; inconclusive = small, poorly fitted or top-dose-only effect, or effect the other way; inactive = flat fitted curve, though single readings scatter. Potencies of inconclusive entries are doubtful fits and often do not repeat.

What follows are compounds tested against Cruzipain (Trypanosoma cruzi) (UniProt P25779) (assay: qHTS Assay for Promiscuous and Specific Inhibitors of Cruzain (without detergent)). Conditions: purified cruzain, Z-FR-AMC fluorescence, no detergent.
Chain of UniProt P25779 (P25779 whole entry, looked up): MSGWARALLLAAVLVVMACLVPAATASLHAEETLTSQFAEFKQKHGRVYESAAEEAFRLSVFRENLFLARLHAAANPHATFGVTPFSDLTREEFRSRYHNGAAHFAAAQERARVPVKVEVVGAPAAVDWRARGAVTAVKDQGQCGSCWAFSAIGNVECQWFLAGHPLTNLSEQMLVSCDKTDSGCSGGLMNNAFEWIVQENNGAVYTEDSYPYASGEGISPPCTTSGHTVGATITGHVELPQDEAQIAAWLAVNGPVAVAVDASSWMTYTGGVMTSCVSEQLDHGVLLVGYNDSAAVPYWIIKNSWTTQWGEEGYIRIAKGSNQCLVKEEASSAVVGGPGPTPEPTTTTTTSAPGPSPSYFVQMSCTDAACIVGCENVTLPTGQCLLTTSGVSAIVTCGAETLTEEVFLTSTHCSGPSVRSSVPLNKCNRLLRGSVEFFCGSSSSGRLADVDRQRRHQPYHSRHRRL
In short: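 Purified cruzain at 1.5 nM, pre-incubated 15 min with compound at room temperature in 100 mM sodium acetate pH 5.5, 5 mM DTT, 0.00005% Triton X-100. Reaction started with 2 uM Z-FR-AMC; AMC fluorescence increase over 60 s gives rate.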
Also: nearly all actives have a fitted effect of over 40% in size.
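For max response, negative = inhibition in this document: plate controls were enzyme without inhibitor for no effect and buffer without enzyme for full effect.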
Potency is read from the fitted curve at half-maximal effect; tags tell the direction and shape of the fitted curve.

| SMILES | Potency | max response, negative = inhibition |
| --- | --- | --- |
| CCOc1ccc(-n2c(SCC(=O)Nc3ccc4c(c3)OCO4)nc3c(c2=O)SCC3)cc1 | inconclusive: 39.8 µM [inhibitor, single point] | – |
| COc1ccccc1CNC(=O)CCCN1C(=O)CCn2nc(-c3cn(C)c4ccccc34)cc21 | inconclusive: 31.6 µM [activator, single point] | – |
| N#Cc1ccc2ccn(CC(=O)N3CCCc4ccccc43)c2c1 | inconclusive: 12.6 µM [inhibitor, single point] | – |
| COC(=O)c1ccc(C(NC(=O)OCc2ccccc2)/C(=C/[C@@H](C)C(=O)N(C)Cc2cccnc2)c2cccnc2)cc1 (some centres undefined) | inconclusive: 39.8 µM [activator, single point] | – |
| CCOC(=O)CC(=O)CSc1nc2c(c(-c3cccs3)c1C#N)CCC2 | – | inactive: -6.19% |
| CN(C)c1ccc(/C=N/NC(=S)NCc2ccccc2)cc1 | inconclusive: 39.8 µM [inhibitor, single point] | – |
| CCOC(=O)C(C)Sc1nc2c(cnn2-c2ccc(C)cc2)c(=O)[nH]1 (centres undefined) | inconclusive: 12.6 µM [inhibitor, partial curve] | – |
| Cc1ccccc1-c1nc(S(=O)(=O)c2ccc(Cl)cc2)c(NCCN2CCOCC2)o1 | inconclusive: 31.6 µM [activator, single point] | – |
| CC(=O)Nc1ccc(N2CCc3c(C)c(C#N)c4nc5ccccc5n4c32)cc1 | inconclusive: 6.31 µM [inhibitor, single point] | – |
| NC(=O)c1ccsc1NC(=O)c1ccc(S(=O)(=O)N2CCCc3ccccc32)cc1 | inconclusive: 31.6 µM [inhibitor, single point] | – |
| CCOc1ccccc1NC(=O)CCc1nc(-c2cccc(C)c2)no1 | – | inactive: -9.68% |
| COc1ccc(-c2oc(NC(=O)CSc3nncn3C)c(C#N)c2-c2ccc(OC)cc2)cc1 | inconclusive: 39.8 µM [activator, single point] | – |
| CC[N+](CC)(CC)CCOc1ccc(/C=C\c2ccccc2)cc1 | inconclusive: 39.8 µM [activator, single point] | – |
| O=c1c(-c2ccccc2)nc2cnc(N3CCOCC3)nc2n1C[C@H]1CCCO1 | – | inactive: 5.21% |
| CCSc1nc(N)c2c(C)c(C)sc2n1 | inconclusive: 39.8 µM [inhibitor, single point] | – |
| COc1ccc(-c2nc(C)c(CCNC(=O)c3cccs3)s2)cc1 | – | inactive: -0.639% |
| Cc1cc2nc(-c3cccc(NC(=O)COc4ccc(C(C)C)cc4)c3)oc2cc1C | – | inactive: -5.33% |
| COC(=O)c1cc2ccccc2c(-c2c(OC)c(C(=O)OC)cc3ccccc23)c1OC | inconclusive: 31.6 µM [activator, single point] | – |
| Cc1ccc(NC(=O)Cn2ncc3c4ccccc4n(Cc4ccccc4)c3c2=O)cc1Cl | – | inactive: -14.8% |
| CCOc1cc(C(=S)N2CCC(O)CC2)ccc1OS(=O)(=O)c1ccc(Br)cc1 | inconclusive: 31.6 µM [activator, single point] | – |
| CCOc1ccc(NC(=O)c2ccc3c(c2)c(C)c(C)n3Cc2ccc(F)cc2)cc1 | active: 25.1 µM | – |
| CC(=O)OC[C@H]1O[C@H](CCO/N=C(\C)CCN2CCCc3nc(C)c(C)cc32)C=C[C@@H]1OC(C)=O | inconclusive: 31.6 µM [activator, single point] | – |

| SMILES | Potency | max response, negative = inhibition |
| --- | --- | --- |
| CCc1nc(SCc2cc(=O)c3cc(F)ccc3[nH]2)n[nH]1 | – | inactive: -4.19% |
| Cc1cccn2c(=O)c3cc(C#N)c(=O)n(Cc4cccnc4)c3nc12 | inconclusive: 25.1 µM [activator, partial curve] | – |
| CC(=O)N1CCN(c2ccc(OCC3CO[C@@](Cn4ccnc4)(c4ccc(Cl)cc4Cl)O3)cc2)CC1 (some centres undefined) | inconclusive: 39.8 µM [activator, single point] | – |
| COC(=O)c1cc2c(C)cc3ccc(C)cn3c-2c1C(=O)OC | inconclusive: 31.6 µM [activator, single point] | – |
| CC(=O)c1cccc(NC(=O)CN2C(=O)CN(C)C(=O)c3ccccc32)c1 | – | inactive: 1.97% |
| CC(C)=CCC/C(C)=C/Cc1c(O)ccc(C(=O)/C=C/c2ccc(O)cc2)c1O | inconclusive: 39.8 µM [inhibitor, single point] | – |
| CCN(CC)S(=O)(=O)c1ccc(NC(=O)[C@H](CCSC)N2Cc3ccccc3C2=O)cc1 | – | inactive: 11.8% |
| CCN(CC)S(=O)(=O)c1ccc(NC(=O)CN(c2ccc(OC)cc2OC)S(C)(=O)=O)cc1 | inconclusive: 39.8 µM [activator, single point] | – |
| COC(=O)c1sccc1N/N=C(\C)c1ccc(F)c(Cl)c1 | active: 20 µM | – |
| Cc1cccc(CN2C(=O)c3ccccc3S(=O)(=O)c3ccc(C(=O)N4CCCC4)cc32)c1 | inconclusive: 39.8 µM [activator, single point] | – |
| N#Cc1c(NC(=O)CN2CCOCC2)oc(-c2ccccc2)c1-c1ccccc1 | inconclusive: 31.6 µM [activator, single point] | – |
| COc1ccc(C(=O)On2c(-c3ccc(Br)cc3)nc3ccccc3c2=O)cc1 | inconclusive: 25.1 µM [inhibitor, single point] | – |
| O=C(COc1ccc(Cl)cc1)Nc1nc(-c2ccc(S(=O)(=O)N3CCOCC3)cc2)cs1 | inconclusive: 31.6 µM [inhibitor, single point] | – |
| O=C(CSc1cc(Cl)ccc1Cl)NC1CCCc2ccccc21 (centres undefined) | inconclusive: 31.6 µM [inhibitor, single point] | – |
| CCOC(=O)c1c(C)nc2c(c1-c1ccc(OC)c(OC)c1)C(=O)c1ccccc1-2 | inconclusive: 39.8 µM [activator, single point] | – |
| O=C(Nc1ccccc1)N1CC2(CCN(C(=O)c3cccc(F)c3)CC2)C1 | – | inactive: -3.1% |
| CCCN(C(=O)Cn1cnc2sc(C)c(S(=O)(=O)N3CCN(c4ncccn4)CC3)c2c1=O)c1cccc(C)c1 | – | inactive: 1.65% |
| Cc1cccc2cc(CN(Cc3cccs3)S(=O)(=O)c3ccc4c(c3)OCCO4)c(=O)[nH]c12 | inconclusive: 2 µM [inhibitor, partial curve, poor fit] | – |
| Cc1ccc(C)c(NC(=O)CSc2nc(N)c(NC(=O)c3cccs3)c(=O)[nH]2)c1 | inconclusive: 39.8 µM [inhibitor, single point] | – |
| CCOC(=O)c1cc(S(=O)(=O)N2CCN(c3cc(Cl)ccc3C)CC2)[nH]n1 | – | inactive: -0.88% |
| CN1CCc2nc3sc(C(=O)Nc4c(F)cccc4F)c(N)c3cc2C1 | inconclusive: 15.8 µM [inhibitor, partial curve] | – |
| O=c1ccc2c(O)c3ccoc3cc2o1 | – | inactive: 13.1% |

| SMILES | Potency | max response, negative = inhibition |
| --- | --- | --- |
| Cn1cccc1Cc1nnc(SCC(=O)NCC2CCCO2)n1-c1ccc(F)cc1 (centres undefined) | inconclusive: 31.6 µM [activator, single point] | – |
| O=C(c1ccc(Cl)cc1)N1CCC(O)(CSc2ccc(Cl)cc2Cl)CC1 | inconclusive: 31.6 µM [activator, single point] | – |
| COC(=O)c1ccc(NC(=S)NC(=O)c2cc(-c3ccccc3)nc3ccccc23)cc1 | active: 10 µM | – |
| O=C(N/N=C/c1cccc(Oc2ccccc2)c1)c1cccc(Br)c1 | inconclusive: 39.8 µM [inhibitor, single point] | – |
| O=C1CC(N2CCN(c3nc4ccccc4s3)CC2)C(=O)N1c1ccc(F)cc1 (centres undefined) | inconclusive: 31.6 µM [activator, single point] | – |
| CCc1cc2cc(C(=O)N3CCN(c4ccccc4)CC3)sc2s1 | inconclusive: 39.8 µM [inhibitor, single point] | – |
| Cc1oc(-c2ccccc2Cl)nc1CS(=O)(=O)CC(=O)NC(C)CCc1ccccc1 (centres undefined) | inconclusive: 20 µM [activator, partial curve] | – |
| CCc1cccc(C)c1NC(=O)Cn1cc2c(n1)CCCC2 | – | inactive: -8.4% |
| Cn1c(=O)c2c(-c3ccc(Br)cc3)n(CCc3ccccc3)cc2n(C)c1=O | inconclusive: 39.8 µM [activator, single point] | – |
| COc1ccc(-c2nnn(CC(=O)N(Cc3cccs3)C(C)C(=O)NC3CCCC3)n2)cc1OC (centres undefined) | inconclusive: 39.8 µM [activator, single point] | – |
| O=C(c1ccc2nc(-c3ccco3)c(-c3ccco3)nc2c1)N1CCC2(CC1)OCCO2 | inconclusive: 3.16 µM [inhibitor, full curve, poor fit] | – |
| CCN1C(C(=O)c2ccccc2)=C(OC(=O)c2ccc(OC)cc2)c2ccccc2S1(=O)=O | inconclusive: 39.8 µM [inhibitor, single point] | – |
| COc1c2c(c(C(=O)/C=C/C(C)=C/c3ccccc3)c3c1OCO3)CCN(C)C2 | – | inactive: -2.8% |
| CCc1ccc(-c2csc(NC(=O)Oc3ccccc3)n2)cc1 | active: 12.6 µM | – |
| Cc1ccccc1C(=O)Nc1nc2nc(-c3ccccc3)cc(=O)n2[nH]1 | – | inactive: -0.23% |
| Cc1cc(C)c(/C=C/c2onc(C)c2S(=O)(=O)N2CCC(C(=O)N(C)Cc3ccccc3)CC2)c(C)c1 | – | inactive: 3.62% |
| Cc1ccc(NC(=O)Nc2nnc(N(C)C3CCCCC3)s2)c(Cl)c1 | inconclusive: 39.8 µM [activator, single point] | – |
| Cn1cnnc1SCC(=O)Nc1ccc2nc(SCc3ccccc3Cl)sc2c1 | inconclusive: 31.6 µM [activator, single point] | – |
| COc1ccc(-c2nnc(COc3ccc4ccccc4c3)o2)cc1OC | inconclusive: 39.8 µM [activator, single point] | – |
| CCOC(=O)N1CCC(n2c(SCC(=O)NCCC3=CCCCC3)nc3ccccc3c2=O)CC1 | inconclusive: 25.1 µM [activator, partial curve] | – |
